In the supplement of paper PMC10037445:
Several values for one entry are separate records, joined by “and”; a condition that tells them apart may be missing. Equal values may be shown once. Whole data set: some 2,900 compounds, median “IRF Lucia reporter activity, fold change vs agonist alone” near 0.9, cut for the highest 2% near 2.8. This is one part of the list.

Experiments:
[1] = tested on: RAW-Dual; test: IRF Lucia reporter activity, fold change vs agonist alone; cytotoxicity flag (confluency mask): cytotoxic (confluency <70% of control); higher = enhanced IRF activity
How it was run: (§1)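 Supernatant from RAW-Dual macrophages was read after 20 hours for IRF by QuantiLuc luminescence and for NF-κB by QuantiBlue absorbance at 620 nm. The cells (50,000 cells/well in DMEM, 384-well plates, 37 °C, 5% CO2) had received 50 nL of library stock by pin tool and, 1 h later, a PRR agonist. Reporter activity is expressed relative to agonist-alone wells as fold change, and wells were flagged cytotoxic if IncuCyte confluency was under 70% of agonist controls in both mask sets.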

[2] = tested on: RAW-Dual; test: IRF Lucia reporter activity, fold change vs agonist alone; higher = enhanced IRF activity; details: library stock concentration (final ~1000-fold dilution): 10 mM, agonist: MPLA (TLR4) […]
How it was run: as §1

[3] = tested on: RAW-Dual; test: IRF Lucia reporter activity, fold change vs agonist alone; cytotoxicity flag (confluency mask): not cytotoxic; higher = enhanced IRF activity
How it was run: as §1

[4] = agonist: 3'3'-cGAMP (STING) 10 ug/mL
[5] = cytotoxicity flag (confluency mask): not cytotoxic

CN1C(=O)C(C)(C)Oc2c(-c3cn(C)c(=O)c4[nH]ccc34)cc(S(C)(=O)=O)cc21 (library stock concentration (final ~1000-fold dilution): 10 mM)
IRF Lucia reporter activity [1, 4]: 0.252
IRF Lucia reporter activity ([1]; agonist: LPS (TLR4) 0.1 ug/mL): 0.0917

CN1CCC(=C2c3ccccc3CCc3cccnc32)CC1.O=C(O)/C=C\C(=O)O.O=C(O)/C=C\C(=O)O
IRF Lucia reporter activity [2, 5]: 0.927

CN1CCC(=C2c3ccccc3CCc3cccnc32)CC1.O=C(O)/C=C\C(=O)O.O=C(O)/C=C\C(=O)O (library stock concentration (final ~1000-fold dilution): 10 mM)
IRF Lucia reporter activity [3, 4]: 0.83
IRF Lucia reporter activity ([3]; agonist: LPS (TLR4) 0.1 ug/mL): 0.866

O=C(NCCO)c1cccc(-c2cc(Nc3ccc(OC(F)(F)F)cc3)ncn2)c1 (library stock concentration (final ~1000-fold dilution): 10 mM)
IRF Lucia reporter activity [3, 4]: 0.724
IRF Lucia reporter activity ([3]; agonist: LPS (TLR4) 0.1 ug/mL): 2.05

O=C(NCCO)c1cccc(-c2cc(Nc3ccc(OC(F)(F)F)cc3)ncn2)c1
IRF Lucia reporter activity [2, 5]: 1.94

O=C(CS(=O)Cc1ccco1)NC/C=C\COc1cc(CN2CCCCC2)ccn1 (configuration not stated) (library stock concentration (final ~1000-fold dilution): 10 mM)
IRF Lucia reporter activity [3, 4]: 1.09
IRF Lucia reporter activity ([3]; agonist: LPS (TLR4) 0.1 ug/mL): 1.09

O=C(CS(=O)Cc1ccco1)NC/C=C\COc1cc(CN2CCCCC2)ccn1 (configuration not stated)
IRF Lucia reporter activity [2, 5]: 1

CC(C)COc1ccc(CNC(=O)N(Cc2ccc(F)cc2)C2CCN(C)CC2)cc1.CC(C)COc1ccc(CNC(=O)N(Cc2ccc(F)cc2)C2CCN(C)CC2)cc1.O=C(O)C(O)C(O)C(=O)O (library stock concentration (final ~1000-fold dilution): 10 mM)
IRF Lucia reporter activity [1, 4]: 0.0797
IRF Lucia reporter activity ([1]; agonist: LPS (TLR4) 0.1 ug/mL): 0.0191

CCn1cc(-c2cccc(C(F)(F)F)c2)c2sc(C(=N)NC3CCS(=O)(=O)CC3)cc2c1=O (library stock concentration (final ~1000-fold dilution): 10 mM)
IRF Lucia reporter activity [1, 4]: 0.678
IRF Lucia reporter activity ([1]; agonist: LPS (TLR4) 0.1 ug/mL): 0.275

Cn1c(=O)cc(N2CCCC(N)C2)n(Cc2ccccc2C#N)c1=O (configuration not stated) (library stock concentration (final ~1000-fold dilution): 10 mM)
IRF Lucia reporter activity [3, 4]: 1.02 and 1.03
IRF Lucia reporter activity ([3]; agonist: LPS (TLR4) 0.1 ug/mL): 1.34 and 1.02

CC(C)c1c(C(=O)Nc2ccccc2)c(-c2ccccc2)c(-c2ccc(F)cc2)n1CCC(O)CC(O)CC(=O)O (configuration not stated) (library stock concentration (final ~1000-fold dilution): 10 mM)
IRF Lucia reporter activity [3, 4]: 0.637 and 0.34
IRF Lucia reporter activity ([3]; agonist: LPS (TLR4) 0.1 ug/mL): 0.968 and 0.706

O=[N+]([O-])c1cccc2cn[nH]c12
IRF Lucia reporter activity [2, 5]: 1.11

O=[N+]([O-])c1cccc2cn[nH]c12 (library stock concentration (final ~1000-fold dilution): 10 mM)
IRF Lucia reporter activity [3, 4]: 0.999
IRF Lucia reporter activity ([3]; agonist: LPS (TLR4) 0.1 ug/mL): 0.953

CNC(=O)c1cc(Oc2ccc(NC(=O)Nc3ccc(Cl)c(C(F)(F)F)c3)c(F)c2)ccn1.O (library stock concentration (final ~1000-fold dilution): 10 mM)
IRF Lucia reporter activity [3, 4]: 0.406
IRF Lucia reporter activity ([3]; agonist: LPS (TLR4) 0.1 ug/mL): 0.335

CNC(=O)c1cc(Oc2ccc(NC(=O)Nc3ccc(Cl)c(C(F)(F)F)c3)c(F)c2)ccn1.O
IRF Lucia reporter activity [2, 5]: 0.708

COc1ccccc1OCC(O)CN1CCN(CC(=O)Nc2c(C)cccc2C)CC1 (configuration not stated) (library stock concentration (final ~1000-fold dilution): 10 mM)
IRF Lucia reporter activity [3, 4]: 1.08
IRF Lucia reporter activity ([3]; agonist: LPS (TLR4) 0.1 ug/mL): 0.973

COc1ccccc1OCC(O)CN1CCN(CC(=O)Nc2c(C)cccc2C)CC1 (configuration not stated)
IRF Lucia reporter activity [2, 5]: 0.739

CCNC1=NC2C(OC(CO)C(O)C2O)S1 (configuration not stated) (library stock concentration (final ~1000-fold dilution): 10 mM)
IRF Lucia reporter activity [3, 4]: 1.2
IRF Lucia reporter activity ([3]; agonist: LPS (TLR4) 0.1 ug/mL): 1.15

CCNC1=NC2C(OC(CO)C(O)C2O)S1 (configuration not stated)
IRF Lucia reporter activity [2, 5]: 1.1

CCCNCC(O)COc1ccccc1C(=O)CCc1ccccc1 (configuration not stated)
IRF Lucia reporter activity [2, 5]: 1.44

CCCNCC(O)COc1ccccc1C(=O)CCc1ccccc1 (configuration not stated) (library stock concentration (final ~1000-fold dilution): 10 mM)
IRF Lucia reporter activity [3, 4]: 0.797
IRF Lucia reporter activity ([3]; agonist: LPS (TLR4) 0.1 ug/mL): 1.16

CC/C(=C(\c1ccccc1)c1ccc(OCCN(C)C)cc1)c1ccccc1.O=C(O)CC(O)(CC(=O)O)C(=O)O
IRF Lucia reporter activity ([2]; cytotoxicity flag (confluency mask): cytotoxic (confluency <70% of control)): 1.74

CC/C(=C(\c1ccccc1)c1ccc(OCCN(C)C)cc1)c1ccccc1.O=C(O)CC(O)(CC(=O)O)C(=O)O (library stock concentration (final ~1000-fold dilution): 10 mM)
IRF Lucia reporter activity [1, 4]: 0.806
IRF Lucia reporter activity ([1]; agonist: LPS (TLR4) 0.1 ug/mL): 0.269

CC(NC(=O)C(O)c1cc(F)cc(F)c1)C(=O)NC1C(=O)N(C)c2ccccc2-c2ccccc21 (configuration not stated) (library stock concentration (final ~1000-fold dilution): 10 mM)
IRF Lucia reporter activity [3, 4]: 1.02
IRF Lucia reporter activity ([3]; agonist: LPS (TLR4) 0.1 ug/mL): 0.915

CC(NC(=O)C(O)c1cc(F)cc(F)c1)C(=O)NC1C(=O)N(C)c2ccccc2-c2ccccc21 (configuration not stated)
IRF Lucia reporter activity [2, 5]: 1.16

CC(C)n1cc(-c2ccc3c(c2)N(C)CC3)c2c(NS(=O)(=O)c3ccn(C)n3)ccnc21 (library stock concentration (final ~1000-fold dilution): 10 mM)
IRF Lucia reporter activity [3, 4]: 1.05
IRF Lucia reporter activity ([3]; agonist: LPS (TLR4) 0.1 ug/mL): 0.988
